Reference: the supplement of paper PMC11417369
The list shows a part of the results.

Tested on: PfSIP2 AP2 domain 1 (GST-tagged)
Assay: gcPBM binding intensity (ln(normalized median fluorescence intensity)); higher = stronger DNA binding
Outline: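 Binding intensity values are the highest Masliner-normalised natural-log median intensity among replicate spots of either probe orientation. The binding step lasted 1 h in 1× PBS with 1% milk, 0.2 mg/ml BSA, 0.5% salmon testes DNA and 0.03% Triton X-100, using GST-tagged P. falciparum DNA-binding domains expressed in E. coli on an Agilent 4 × 180k array of primer-extended double-stranded 36-bp intergenic genomic probes plus negative controls. Alexa488 anti-GST antibody and a 488 nm scan detected bound protein.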

Row | Sequence | gcPBM binding intensity (ln)
1 | ATTTATATTCCAATATGTACATATTTTCGTATAACC [XGTACX_site8507] | 7.05
2 | ATTACAAATTCTTTCAGTACATATAAAGAAAAAAAT [XGTACX_site7786] | 7.21
3 | ATTTAGAATGTTCCTACACACCAAATTTAAGGGTGC [CACACA_site5320] | 8.5
4 | AAAAAAAAAACACACACATGCACATCATATTATATA [TGCATGCA_site133] | 7.03
5 | TTAATACAAATAAAAAGTACAAGTATCGAACTACTA [XGTACX_site6308] | 6.82
6 | TTTTTAGTAACATATAGTACATATATATATATATGT [XGTACX_site4780] | 7.36
7 | TTATTTTTTCTTCAAATGTGAATTATTCATTTATTT [TGCATGCA_negctrl_site545] | 6.74
8 | ATAATATGAAACTCGTACGAGGTTGTCCCAAATATA [CACACA_negctrl_site1350] | 6.87
9 | ATATATTATCAACTTACACACAGAAAAATATAATAA [CACACA_site293] | 6.96
10 | TTTAAAGGTGATAAAACACACGATTTAGAAATGTAT [CACACA_site3161] | 7.01
11 | GATATGTAAATAATATGTACATATTTATATTGTATT [XGTACX_site4052] | 7.04
12 | AAAAAGAATGTGAACACACACATTGAATATAATTTA [CACACA_site1262] | 6.67
13 | GATATTTTTATTTGTTGTACTTAAGATAATAAATGA [XGTACX_site2891] | 7.24
14 | AAAAAAAAAAAAATACGTACACAAAAAATTGCAAAG [XGTACX_site5663] | 7.46
15 | AATATATTAAAAAAGCGTACAAGAATTGGAAAATGG [XGTACX_site6576] | 7.46
16 | TGTATAACCTGTGTTACACACATTAAAATTTATATA [CACACA_site4449] | 6.88
17 | ATAAATGTGTTTATTTAACACACAAAAGAAAAAATA [CACACA_site8589] | 6.88
18 | GTATCAAAAGAATACACACACACATACCTATAAATA [CACACA_site7737] | 7.04
19 | AAAGGAAAAAAAGTAGCACACAAATATTTATAATAT [CACACA_site8772] | 6.93
20 | CATACATAAATATAAACATGCATATATTTTTTTTAT [TGCATGCA_site616] | 6.8
21 | TGATATCTTAAGAAATGTACAAAGATATAACCATTT [XGTACX_site1913] | 6.74
22 | ATTTTAATAAAATATGTACACACATACACCCATATA [CACACA_site8326] | 7.34

Row | Sequence | gcPBM binding intensity (ln)
23 | TAAATAAAAAAAAATACACACATCTATATAAAATAT [CACACA_site3774] | 6.76
24 | TAGGAGAAAAAAAAAAGTACCCACAACTATTATACT [XGTACX_site8195] | 6.85
25 | TGGTAATATCGATTCACACATATCAAAATAAAAAAA [CACACA_site4196] | 7.11
26 | AACATATTAATGTACACACACCCACGCACAAACAAA [CACACA_site7320] | 7.52
27 | TTATAAGATTTATGTACACACATATACACAGCTCTA [CACACA_site6481] | 7.12
28 | AGTATTATATATATATGTACATAATATACATATATA [XGTACX_site8514] | 7.07
29 | TCCTAATGCTACCACACACACAAAAACAAATAATAA [CACACA_site2610] | 7.49
30 | GCTATAAATACAGACGCACACATATACATACAGATA [CACACA_site5778] | 7.47
31 | TGTTATTAGAAAAATGCACACCAAAAAAAAAAAAAA [CACACA_site8802] | 7.59
32 | ATATACATAATATATAATATAAATATATATATGGAA [CACACA_negctrl_site906] | 6.74
33 | TATTAAAATATTTATACACACATAATTTTGATAAAT [CACACA_site4486] | 6.75
34 | TGTCATTCCTCTTATTGTACAAAAATATTATAATAT [XGTACX_site1134] | 7.5
35 | ATGGAACTTAAAAATTGTACACATAAAATGGAGAAG [XGTACX_site1823] | 7.36
36 | GTTATACGCATCAACACACACATACAACGTGGTGTA [CACACA_site1188] | 7.06
37 | TAATTAATTTACATTTTAATTTTATACAAAATTTAT [CACACA_negctrl_site830] | 6.7
38 | ACATATTTATATTCTACACACTTATACTATAATACA [CACACA_site7204] | 7.15
39 | AATATATATATTAAATGTACATTACATAATTATATA [XGTACX_site3450] | 7.06
40 | TAAATGAAAATATGTACACACTTGAAAACTTTTATG [CACACA_site7388] | 6.88
41 | TGCAACAAAATAAACACACACACACTAGCACAAAAA [CACACA_site5805] | 7.1
42 | TTTTTTTTTTTAGACACATGCATTTTTATAATTTTC [TGCATGCA_site843] | 6.78
43 | TATATATATTAACTTGTGCGCAAAAAGATATAATTT [GTGCAC_site9672] | 7.53
44 | AATATTTTGATGTGTACACATTAATACAGTTTTACA [CACACA_site5711] | 7.2

Row | Sequence | gcPBM binding intensity (ln)
45 | TAGGATATTGAATAATGTACTTTATATATAATATAA [XGTACX_site7828] | 6.9
46 | ATATGTATGTATGTCTCAAAATTTCATATTATATTA [CACACA_negctrl_site784] | 6.64
47 | AAGAAATAAAAAAAACGTACATATATACATACATAC [XGTACX_site3980] | 7.9
48 | AAAAACGAAAAAAATACACACCTGAAAAGATATGTA [CACACA_site4644] | 6.66
49 | GTATATATGTATATGTGTACATATATTTTATAATAT [XGTACX_site5703] | 7.28
50 | AGATCATAATATTATACACACATTATATATATGTAA [CACACA_site8419] | 7.01
51 | TGGAAAGTTATTAACACACACATATAAATATTTATA [CACACA_site6173] | 6.98
52 | GGAATAACCAGACACACACACACATATATATATATA [CACACA_site3541] | 9.12
53 | TATATATAATATTATACACACATATCTGCATAATAT [CACACA_site4202] | 7.37
54 | AAAAACCATTCGCACACACACATAATCTATAATATA [CACACA_site6782] | 7.34
55 | AAGTACCATATAGGCACACATATATATATATATATA [CACACA_site3282] | 9.71
56 | TCCAATTCTTTATTTTGTACACATTATGTGCATATG [XGTACX_site6290] | 7.29
57 | GTTGTTATATAAAGGAGTACATAATAACACAAATAT [XGTACX_site615] | 7.45
58 | TTTTCTTGTAGTATAACAAAATATAGTAATATATAT [GTGCAC_negctrl_site609] | 7.39
59 | AAAAAAAAAAAAAAAACACACATTTATAGTATATAT [CACACA_site1194] | 7.57
60 | GATTTATTTCATATCACACATTTTGGCTATTTTGTG [CACACA_site5793] | 6.88
61 | AATCCTTCATATGTAGTGCATATTAACAAAATAAAA [GTGCAC_site9500] | 8.78
62 | ATGAAATATTTATTTGTGCACTTAATTTGTTGGAAA | 10.4
63 | CCATTTGGTATTATATGTACATATAATTTTTTTTTT [XGTACX_site157] | 7.02
64 | ATTATCCATGCATTTACACACACACCCAAAAAAATT [CACACA_site4101] | 7.9
65 | AAAGGGGCATATATATGTACATATTATATATTTTGA [XGTACX_site2436] | 7.27
66 | AATACATTGTCAAATTGTACAAATTATAGAACTATT [XGTACX_site2222] | 6.97

Row | Sequence | gcPBM binding intensity (ln)
67 | CCATAAAAAGGATACACACACACACCCACATATATA [CACACA_site903] | 7.18
68 | TGTTTTTATATATATGCACACAATGTACAAGTATAC [CACACA_site3529] | 7.6
69 | TTATATATAAACATAAAAAGAAATATATTATGTATA [CACACA_negctrl_site667] | 6.85
70 | AAAGTCTCATTAAAATGTACAAAATTTTCAGCTGTA [XGTACX_site6296] | 6.71
71 | TATGTGAATATAATCACACACAATACGGAAACCCAC [CACACA_site2725] | 7.37
72 | TAATTTTTAATTGTAGCATGCAGTATTTTTAAATAT [TGCATGCA_site140] | 7.06
73 | ATATTTAATGTTAATTGTACATATTATATATATATA [XGTACX_site6095] | 9.06
74 | GATTATACAAAATATACACACGTGTAGACAAATATT [CACACA_site4785] | 7.15
75 | ATAATATTATTATAATGTACATATTTCGATATAAAT [XGTACX_site8808] | 7.1
76 | AAAAAAATATATATTACACACATATATACCTATATA [CACACA_site5688] | 7.01
77 | ATATATATTAATAGGTGTACATATAAAGTGTTATGT [XGTACX_site5464] | 7.34
78 | TAATAATGCAACCTCTGTACACAACATTATATCCAT [XGTACX_site7596] | 7.31
79 | AAAAAAAAATTTTTAAAATTTAGAAAATTTAAAAAA [GTGCAC_negctrl_site649] | 6.64
80 | TATATATAAGCGTGTACACATTCTGAGTGTTGTATA [CACACA_site4502] | 7.22
81 | ATTGTCTTCTCATATACACACTTTTATGACTATCTT [CACACA_site5696] | 7.24
82 | TGTGTAATTATATATAAGGAGAAAGAATTCATTTTT [CACACA_negctrl_site670] | 6.77
83 | TATTGAAGTTATAAAGTGCAGATAAATATGAGTTAT [GTGCAC_site9945] | 7.81
84 | ACAAAAAATAATCAAAATGTATATATATAATATAAT [XGTACX_negctrl_site593] | 7.08
85 | AAATGCCATATAATTTTTCTTAAACATAATTGTATA [CACACA_negctrl_site1665] | 6.77
86 | AACAAATAAACAAAATTGGAAAATAAAAATATCAAA [CACACA_negctrl_site1125] | 6.64
87 | TCGTATATGGATTTTGCACACAATTTTAATTTAAAT [CACACA_site4635] | 7.51
88 | ATGATTTGTCTGAAATGTACATATATATATATATAT [XGTACX_site5247] | 9.47
